About 5,000 (1.2%) of roughly 410,000 compounds were called active. Inconclusive means that the source gave no clear call. Such entries were picked first, then a sample of the others. Calls follow the shape of the dose curve; as a rule, active = well fitted inhibition curve with a large enough effect; inconclusive = small, poorly fitted or top-dose-only effect; inactive = no such curve, though single readings can be large or run the other way. Potencies of inconclusive entries are doubtful fits and often do not repeat.
Experiment: qHTS for Inhibitors of TGF-b; also: nearly all actives have a fitted effect of over 65% in size
Conditions: HepG2 CAGA-GFP TGF-b/SMAD3 reporter, GFP fluorescence, 18 h, TGF-beta stimulated, 500 pg/mL final; series mostly up to 46.1 µM; activity, negative = inhibition: at the top concentration
Procedure, shortened: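 Per well, imaged GFP fluorescence of HEPG2 CAGA-GFP cells gives the signal; cells get compound, then TGF-beta (500 pg/mL final), 18 h at 37 degrees C; %Activity versus -TGF-beta and +DMSO controls.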
% is scaled to controls: 0 for no effect and ±100 for the full control effect; potency is read from the fitted curve at half-maximal effect; tags tell the direction and shape of the fitted curve.

Row | Structure (SMILES) | activity, negative = inhibition | Potency
1 | O=C(Nc1nc2c(F)cccc2s1)c1ccco1 | inactive: -11.6% | 
2 | CC(=O)c1cccc(NC(=O)C2Cc3c(-c4ccccc4Oc4ccccc4)ccnc3O2)c1 (stereo not drawn) | inactive: -8.61% | 
3 | COc1ccc(OC)c(C(=O)NC(CC(N)=O)c2ccc(NCc3ccccn3)c([N+](=O)[O-])c2)c1 (stereo not drawn) | inactive: 3.26% | 
4 | CC(=O)N1CCCc2cc(S(=O)(=O)N3CCCC(C(=O)NCc4ccc(C)cc4)C3)ccc21 (stereo not drawn) |  | inconclusive: 14.1 µM [inhibitor, single point]
5 | Cc1sc(NC(=O)CCl)c(C(=O)c2ccccc2)c1C |  | inconclusive: 22.4 µM [inhibitor, single point]
6 | CCOc1ccc(NCc2nc3ccccc3n2CCOc2ccc(C)cc2)cc1 |  | inconclusive: 20 µM [inhibitor, single point]
7 | O=C(O)C1C2CCC(CC2)C1C(=O)N1CCN(Cc2ccc(F)cc2)CC1 (stereo not drawn) | inactive: 0.0479% | 
8 | Cc1ccc(C)c(N2CCN(c3ccncc3N)CC2)c1 | inactive: 3.74% | 
9 | COc1ccccc1NC=C1C(=O)OC(C)(C)OC1=O |  | inconclusive: 5.01 µM [inhibitor, partial curve, poor fit]
10 | O=C(COc1ncnc2sccc12)Nc1cccc(S(=O)(=O)N2CCOCC2)c1 |  | inconclusive: 35.5 µM [inhibitor, single point]
11 | Cc1nc2sccn2c(=O)c1S(=O)(=O)Nc1cc(C(F)(F)F)ccc1Cl | inactive: 29.2% | 
12 | COCCNC(=O)c1ccc(-c2nc(CS(=O)(=O)c3ccccc3)c(C)o2)cc1 |  | inconclusive: 5.62 µM [inhibitor, single point]
13 | O=C(Nc1ccc(Cl)cc1)C1CCCCN1S(=O)(=O)c1ccccc1 (stereo not drawn) |  | inconclusive: 15.8 µM [inhibitor, single point]
14 | COc1ccccc1CNC(=O)CSc1nnc(C)c2c(C)n(-c3ccccc3)nc12 |  | inconclusive: 35.5 µM [inhibitor, single point]
15 | O=C(c1oc2ccccc2c1N1CCCCC1)N1CCCCC1 | inactive: -24.6% | 
16 | Cc1ccc(CNC(=O)CSc2nc3n[nH]c(C)c3c(=N)n2-c2ccccc2Cl)cc1 |  | inconclusive: 8.91 µM [inhibitor, partial curve]
17 | CC1(C)NC(=O)N(CC(=O)O)C1=O |  | inconclusive: 0.708 µM [inhibitor, partial curve, poor fit]
18 | COc1ccc(/C=C/c2cccc[n+]2C)c(O)c1 |  | inconclusive: 35.5 µM [inhibitor, single point]
19 | Cc1ccc(OCC(=O)NNC(=O)CCC(=O)Nc2ccc(C)cc2C)cc1 |  | inconclusive: 1.58 µM [inhibitor, partial curve, poor fit]
20 | COc1cnc(-c2ccccn2)nc1Oc1ccc(Cl)c2ccccc12 | inactive: -17.4% | 
21 | CCc1c(C)nc2c(-c3ccccc3)c(-c3ccccc3)[nH]n2c1=O | inactive: -4.89% | 
22 | CCOc1ccc(-n2ccnc2SCC(=O)Nc2cc(C)on2)cc1 |  | inconclusive: 12.6 µM [inhibitor, partial curve, poor fit]
23 | COc1ccc(/C=C2\SC(=O)N(CCNC(=O)Cc3coc4cc(C)ccc34)C2=O)cc1OC |  | inconclusive: 11.2 µM [inhibitor, partial curve, poor fit]

Row | Structure (SMILES) | activity, negative = inhibition | Potency
24 | O=C(N/N=C/c1ccncc1)c1cccs1 | inactive: 12.6% | 
25 | COc1ccc(NC(=O)c2cc([N+](=O)[O-])ccc2O)cc1 |  | active: 11.2 µM
26 | Fc1cc(F)c2nc(Nc3nc4c(F)cccc4s3)sc2c1 |  | inconclusive: 4.47 µM [inhibitor, full curve]
27 | CN1CCc2c(C#N)c(N3CCCCC3)nc(NCc3ccccc3)c2C1 |  | inconclusive: 22.4 µM [inhibitor, single point]
28 | Fc1ccc(C2C3=C(Nc4ncnn42)c2ccccc2OC3c2ccncc2)cc1 (stereo not drawn) |  | inconclusive: 11.2 µM [inhibitor, partial curve]
29 | CN(CCc1ccccc1)C(=O)c1cc(COc2cccc(C(F)(F)F)c2)on1 |  | inconclusive: 35.5 µM [inhibitor, single point]
30 | Nc1nc(N)c2cc(S(=O)(=O)c3ccc4ccccc4c3)ccc2n1 |  | inconclusive: 17.8 µM [inhibitor, partial curve]
31 | COc1ccccc1N1CCN(C(CNS(=O)(=O)c2ccccc2)c2cccnc2)CC1 (stereo not drawn) | inactive: 0% | 
32 | CCCc1nc2c(C)cc(Br)cn2c1Cc1ccccc1C(F)(F)F |  | inconclusive: 31.6 µM [inhibitor, single point]
33 | CCOC(=O)N1CCc2c(sc3nc4n(c(=O)c23)N=C(C)CS4)C1 |  | inconclusive: 0.891 µM [inhibitor, full curve, poor fit]
34 | Cc1ccc(-c2noc(CSc3nnc(C)n3-c3ccc(C)c(C)c3)n2)cc1 |  | inconclusive: 10 µM [inhibitor, partial curve, poor fit]
35 | CN(C)c1ccc(-c2ccnc3c2CC(C)(C(=O)Nc2ccc(Cl)c(C(F)(F)F)c2)O3)cc1 (stereo not drawn) |  | inconclusive: 11.2 µM [inhibitor, partial curve, poor fit]
36 | Cn1c(CNc2ccc(Cl)cc2)nnc1SCc1ccccc1 | inactive: -11.3% | 
37 | Cc1ccc(NC(=O)CSc2nnc(-c3n[nH]c4ccccc34)n2-c2ccccc2)c(C)c1 |  | inconclusive: 35.5 µM [inhibitor, single point]
38 | COc1ccc(-c2[nH]ncc2-c2ccc(Cl)cc2)c(O)c1 |  | active: 10 µM
39 | CCOc1ccc(-c2cc(C(=O)Nc3ccc4c(c3)OCCO4)c3ccccc3n2)cc1 |  | inconclusive: 0.631 µM [inhibitor, full curve, poor fit]
40 | CCOC(=O)c1ccc(NCc2nc3ccccc3[nH]2)cc1 | inactive: -7.82% | 
41 | Clc1ccc[n+](CCCCC[n+]2cccc(Cl)c2)c1 | inactive: -19.3% | 
42 | Fc1cccc2sc(N3CCCC3)nc12 |  | inconclusive: 2 µM [inhibitor, partial curve, poor fit]
43 | CCN(CC)C(=O)c1ccc(/C=C/c2c[nH]c3ccccc23)[n+](C)c1 | inactive: 44.7% | 
44 | COc1cc(O)c(C(CCN2CCOCC2)c2ccc(N(C)C)cc2)c(OC)c1 (stereo not drawn) |  | inactive
45 | CNC(=O)/C(C#N)=C/c1cn(CC(=O)OC)c2ccccc12 |  | inconclusive: 35.5 µM [inhibitor, single point]
46 | CCCCCNC(=O)C1CCC(Cn2c(=O)c3sccc3n(CC(=O)NCc3cccc(OC)c3OC)c2=O)CC1 (stereo not drawn) |  | inconclusive: 0.562 µM [inhibitor, full curve, poor fit]

Row | Structure (SMILES) | activity, negative = inhibition | Potency
47 | CCCCN(Cc1ccccc1)S(=O)(=O)c1cc2c(cc1Br)CC(C)N2C(C)=O (stereo not drawn) |  | inconclusive: 12.6 µM [inhibitor, partial curve, poor fit]
48 | Cc1ccc(C)c(Sc2ccc(S(=O)(=O)Nc3ccc(C(=O)O)cc3)cc2)c1 |  | inconclusive: 7.94 µM [inhibitor, partial curve, poor fit]
49 | Cc1cc(Nc2ccc(Br)cc2F)n2nc(C)nc2n1 | inactive: -4.76% | 
50 | Cc1c(Cl)cccc1NC(=O)CSc1nc(=O)n(Cc2ccco2)c2c1CCC2 |  | inconclusive: 35.5 µM [inhibitor, single point]
51 | COC(CNC(=O)c1ccc2c(c1)nc(C)n2-c1ccc(F)c(F)c1)OC |  | inconclusive: 35.5 µM [inhibitor, single point]
52 | CCn1c(SCC(=O)N(C)CCC#N)nc2cc(S(=O)(=O)N3CCOCC3)ccc21 |  | inconclusive: 0.112 µM [inhibitor, full curve, poor fit]
53 | COc1ccc(NC(=O)Cc2ccc(C)c(C)c2)cc1S(=O)(=O)N1CCCCC1 |  | inconclusive: 35.5 µM [inhibitor, single point]
54 | CC(C)CC(C(=O)NC1CCCCC1)N(Cc1cccs1)C(=O)c1snc(C(N)=O)c1N (stereo not drawn) |  | inconclusive: 35.5 µM [inhibitor, single point]
55 | Cc1cccnc1NC(=O)c1cccc(S(=O)(=O)N2CCN(c3ccc(F)cc3)CC2)c1 |  | inconclusive: 35.5 µM [inhibitor, single point]
56 | O=[N+]([O-])c1ccccc1S(=O)(=O)NC1CCCC1 | inactive: -5.55% | 
57 | COc1ccccc1CNCC(O)(c1ccc(F)cc1)c1ccc(F)cc1 |  | inconclusive: 35.5 µM [inhibitor, single point]
58 | CCCC1=NN2C(=N)/C(=C\c3ccc(SCc4ccco4)o3)C(=O)N=C2S1 |  | inconclusive: 3.55 µM [inhibitor, single point]
59 | O=C1CN(S(=O)(=O)c2ccc(F)cc2)CCN1 | inactive: -6.58% | 
60 | O=C(Nc1ccc(Nc2ccccc2)cc1)c1ccc(Br)cc1 |  | inconclusive: 11.2 µM [inhibitor, single point]
61 | Cc1ccc2[nH]c(=O)c3cc(C(=O)NC4CCC(C)CC4)sc3c2c1 (stereo not drawn) | inactive: 9.72% | 
62 | CCCCN(C)C(=O)CSc1nc2ccccc2nc1Cc1ccc(C)cc1 |  | inconclusive: 17.8 µM [inhibitor, single point]
63 | Cc1ccc(S(=O)(=O)c2nc(-c3ccccc3Cl)oc2NCCCN2CCOCC2)cc1 | inactive: 7.5% | 
64 | Cc1cn([C@@H](CCCCNC(=O)OC(C)(C)C)C(=O)NCCCCCCCCCCC(=O)N2CCN(C(=O)OC(C)(C)C)CC2)nn1 |  | active: 11.2 µM
65 | Cc1c(C(=O)NCc2cccc(C(F)(F)F)c2)sc(=O)n1Cc1cccc(F)c1 |  | inconclusive: 0.794 µM [inhibitor, full curve, poor fit]
66 | O=C(CN1C(=O)CSC1=O)N1CCCCC1 |  | inconclusive: 15.8 µM [inhibitor, single point]
67 | C[C@@H]1COC(=O)[C@H](CC(=O)OC(C)(C)C)C/C=C\C[C@H](CC(=O)NCCO)C(=O)N1 |  | inconclusive: 3.98 µM [inhibitor, single point]
68 | COc1cc(/C=N/N=C(/N)c2nonc2N)cc(Br)c1OCc1ccccc1C |  | inconclusive: 35.5 µM [inhibitor, single point]
